In all, about 150,000 compounds went through this assay and about 180 (0.12%) were called active. Inconclusive means that the source gave no clear call. Such entries were picked first, then a sample of the others. Calls come from the whole dose curve; as a rule, active = well fitted cell-killing curve with a large enough effect; inconclusive = small, poorly fitted or top-dose-only effect, or effect the other way; inactive = flat fitted curve, though single readings scatter. Where the call is inconclusive, the potency comes from a doubtful curve fit.
Assay: GF-AFC viability counterscreen for inhibitors of alpha-synuclein gene (SNCA) expression; note: nearly all actives have a fitted effect of over 30% in size
Settings: HEK-293-SNCA-luc viability, GF-AFC fluorescence, 24 h; series mostly up to 57.1 µM
Summary of the method: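 HEK-293-SNCA-luc cells (1500/well) plated 24 h, then exposed 24 h to a dilution series; GF-AFC added 30 min at 37C, fluorescence 405/540 nm; normalised to medium-only and DMSO wells, Hill fit.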
Potency is the fitted concentration of half-maximal effect; tags give direction and shape of the fitted curve.

| Compound | Potency |
| --- | --- |
| COc1cccc(CN2CCc3c(cc(C(=O)N(C)C)n3C)C2)c1 | inconclusive: 1.58 µM [rising, full curve, poor fit] |
| Cc1ccc(C(=O)N2CCc3nc(C4CC4)nc(-c4ccc(Cl)cc4)c3C2)cc1 | inconclusive: 8.91 µM [cytotoxic, full curve] |
| CCC(C(=O)NCc1nnc2c(-c3nc(C4CC4)no3)cccn12)c1ccccc1 (stereo not given) | inactive |
| O=C(NC1CCN(c2cc(-c3cccs3)[nH]n2)C1)c1cccc(Br)c1 (stereo not given) | inconclusive: 25.1 µM [cytotoxic, single point] |
| CC(C(=O)N1CC(Oc2ccc(-c3noc(-c4ccncc4)n3)cc2)C1)c1ccccc1 (stereo not given) | inconclusive: 39.8 µM [cytotoxic, single point] |
| CCC(=O)N1c2nc(-c3ccco3)nn2C2(CCCCC2)[C@@H]2CCCC[C@@H]21 | inconclusive: 10 µM [cytotoxic, partial curve, poor fit] |
| CC1=C[C@@H](CNC(=O)c2cnccn2)[C@H](C(C)C)C[C@H]1Cc1nnc(-c2ccccc2F)o1 | inconclusive: 25.1 µM [cytotoxic, partial curve, poor fit] |
| CN(C(=O)c1ccc2c(c1)N(Cc1cccc(Cl)c1)C(=O)c1ccccc1S2=O)C1CCCCC1 (stereo not given) | inconclusive: 39.8 µM [cytotoxic, single point] |
| O=c1[nH]c(=O)c2[nH]c(=O)[nH]c2[nH]1 | inconclusive: 0.251 µM [rising, full curve, poor fit] |
| Cc1ccc(N2Cc3c(ncnc3N3CCOCC3)N(C)CC2=O)cc1 | inconclusive: 17.8 µM [cytotoxic, partial curve, poor fit] |
| O=C(NCC12CCC=C1N(Cc1ccccc1)C(=O)CC2)c1cccnc1 (stereo not given) | inactive |
| CC(C)NC(=O)c1ccccc1OCC1CCCN(CC2=Cc3ccccc3OC2)C1 (stereo not given) | inconclusive: 10 µM [cytotoxic, partial curve, poor fit] |
| Cn1c(=O)c(=O)n(C)c2cc(N3CCOCC3)c(NS(=O)(=O)c3ccc(Cl)cc3)cc21 | inactive |
| O=S(=O)(c1cc(F)cc(F)c1)N1CCCC(Cn2c(C3CC3)nc3cccnc32)C1 (stereo not given) | inactive |
| CC(C)C[C@@H]1N[C@H](C(=O)NCc2ccc(C(F)(F)F)cc2)Cc2c[nH]c3cccc1c23 | inconclusive: 31.6 µM [cytotoxic, single point] |
| COc1ccc(CCNC(=O)CCCn2c(=O)c3ccccc3n(Cc3cccc(Cl)c3)c2=O)cc1OC | inconclusive: 7.94 µM [cytotoxic, full curve, poor fit] |
| CCNc1ncc2nc(-c3ccc(F)cc3)c(=O)n(-c3ccc(OC)cc3)c2n1 | inconclusive: 39.8 µM [rising, single point] |
| Cc1ccc(-c2nc3scc(CCNC(=O)Cc4ccc(Cl)cc4)n3n2)cc1 | inconclusive: 1.78 µM [cytotoxic, full curve, poor fit] |
| COc1ccccc1C(=O)Nc1cc2c(cc1N1CCCC1)n(C)c(=O)n2C | inconclusive: 23.8 µM [cytotoxic, partial curve] |
| CN(C)c1ccc(-n2c(=O)c(C(=O)NCC(F)F)nc3cccnc32)cc1 | inactive |
| O=C(NC1CCCCCC1)C1CN(c2ccnc3ccnn23)C1 | inactive |
| O=C(c1ccccc1Cl)N1CCC(N2CCCNC2=O)CC1 | inactive |

| Compound | Potency |
| --- | --- |
| COCCNC(=O)[C@@H]1C[C@H](Oc2ccccc2)CN1S(=O)(=O)Cc1ccccc1 | inactive |
| COc1ccc(-c2nc3sc(CCNC(=O)c4cc(OC)c(OC)c(OC)c4)c(C)n3n2)cc1 | inconclusive: 10 µM [cytotoxic, partial curve, poor fit] |
| CCc1ccc(CNC(=O)CN2C(=O)c3cccnc3Oc3ccc(Cl)cc32)cc1 | inconclusive: 39.8 µM [cytotoxic, single point] |
| Cc1cc(-c2cc(OC(=O)c3ccccc3)ccc2Cl)cc2nnc(Nc3ccc(OCCN4CCCC4)cc3)nc12 | inconclusive: 18.4 µM [cytotoxic, single point] |
| Nc1nc2c(c(=O)[nH]1)CCN(C(=O)CC(c1ccccc1)c1ccco1)C2 (stereo not given) | inactive |
| COc1ccc(S(=O)(=O)N2CCc3c(C(=O)Nc4cccc(C)c4)cccc32)cc1 | inactive |
| COC(=O)CNC(=O)c1ccc2nnc(-c3cc(F)ccc3F)n2c1 | inactive |
| c1ccc(-c2nc3c(c(NCC4OCCc5ccccc54)n2)CCNC3)nc1 (stereo not given) | inactive |
| Cc1nnc(SCc2ccccc2)c2cc3sccc3n12 | inconclusive: 0.398 µM [rising, full curve] |
| Cn1c(CN2CCC(O)CC2)nnc1C1CCCN(Cc2ccccn2)C1 (stereo not given) | inconclusive: 10 µM [rising, partial curve, poor fit] |
| Cc1ccc(Cn2cc(-c3ccncc3)cc2C(=O)N2CCCCCC2)cc1 | inconclusive: 22.4 µM [cytotoxic, single point] |
| COCC(=O)N[C@@H]1CN(Cc2ccccc2C(F)(F)F)C[C@H]1CO | inactive |
| O=C(O)c1ccc(CN2CC[C@H](c3nnc(-c4ccc(Cl)cc4)o3)C2)cc1 | inconclusive: 31.6 µM [cytotoxic, partial curve, poor fit] |
| COc1ccc(Nc2cc(C(=O)NCCc3ccc(C)cc3)c3ccccc3n2)c(OC)c1 | inconclusive: 22.4 µM [rising, single point] |
| O=c1cc(-c2ccccn2)oc2c(Nc3ccccc3)nccc12 | inconclusive: 15.8 µM [cytotoxic, partial curve] |
| CCNc1ncc2nc(-c3cccs3)c(=O)n(Cc3ccc(F)cc3)c2n1 | inconclusive: 15.8 µM [rising, partial curve, poor fit] |
| COc1ccc(C2(C(=O)N[C@@H]3CN(c4ccncn4)C[C@H]3CN(C)C)CC2)cc1 | inactive |
| CN(C)C(=O)C1CCc2nnc(-c3ccc(F)cc3)n21 (stereo not given) | inactive |
| CCCCN(Cc1ccccc1)S(=O)(=O)c1cc(Br)cc2c1N(C(=O)C1CC1)CC2 | inactive |
| O=C(NCC1COCCO1)c1ccc(CN2CCC(N3CCCC3)CC2)[nH]c1=O (stereo not given) | inactive |
| CCOc1ccc(-n2ccn3c(CC(C)CC(=O)O)nnc3c2=O)cc1 (stereo not given) | inconclusive: 39.8 µM [cytotoxic, single point] |
| COc1ccc(-n2c(=O)c3c(n2Cc2ccccc2)CN(C(=O)COc2ccccc2)CC3)cc1 | inactive |

| Compound | Potency |
| --- | --- |
| Cc1ccc(C(=O)N2CCC3(CC2)CC(N(Cc2ccc(F)cc2)C2CC2)CCO3)cc1 (stereo not given) | inactive |
| CN1CCN(Cc2ccc(NC(=O)Cc3ccc(Oc4cc(NC(=O)C5CC5)ncn4)cc3)cc2C(F)(F)F)CC1 | inconclusive: 10.6 µM [cytotoxic, full curve, poor fit] |
| c1cc(CN2CCCCCC2)cc(-c2nc(C3CCOC3)no2)c1 (stereo not given) | inconclusive: 39.8 µM [cytotoxic, single point] |
| Cc1ccc(-n2ncc(C(=O)Nc3ccc4c(c3)OCCO4)c2C2CCN(C(=O)OC(C)(C)C)CC2)cc1 | inconclusive: 39.8 µM [cytotoxic, single point] |
| O=c1c(-c2cccs2)nc2cnc(Oc3ccccc3)nc2n1-c1ccccc1 | inconclusive: 39.8 µM [rising, single point] |
| CCCn1c(SCc2nc(-c3cc(OC)ccc3OC)no2)nnc1-c1ccc(Cl)cc1 | inconclusive: 15.8 µM [cytotoxic, partial curve, poor fit] |
| Cc1ccc2c(c1)C(c1ccccc1)N(C(=O)c1ccccc1F)CC(=O)N2 (stereo not given) | inactive |
| CC(=O)N1CCCC2(C1)CN(C)c1ccc(C(=O)NCC(C)C)cc12 (stereo not given) | inactive |
| CNC(=O)[C@@H]1CN(C(=O)c2nccc3ccccc23)C[C@H]1c1nc(COC)no1 | inconclusive: 6.31 µM [cytotoxic, single point] |
| Cc1cccc(N2C(=O)N(Cc3cc(=O)n4ccccc4n3)c3ccccc3S2(=O)=O)c1 | inconclusive: 8.91 µM [cytotoxic, full curve, poor fit] |
| O=C(NCC1(COc2cccnc2)C[C@@H](O)[C@@H](O)C1)C1CC1 (stereo not given in full) | inconclusive: 56.2 µM [cytotoxic, single point] |
| CCOC(=O)c1ccc(NC(=O)CSc2c(C(C)C)cnc3c2c(=O)n(C)c(=O)n3C)cc1 | inconclusive: 3.98 µM [rising, full curve] |
| COc1ccc(-n2nc(C)c([C@@H]3C=C[C@@H](NCc4ccc(C(C)C)cc4)C3)c2C)cc1 | inconclusive: 35.5 µM [cytotoxic, single point] |
| CCOc1ccc2c(c1)c(=O)c(C(=O)c1ccccc1)cn2Cc1ccccc1 | inconclusive: 7.94 µM [cytotoxic, partial curve, poor fit] |
| CC(C)CN(CC(C)C)C(=O)CC1C(=O)NCCN1Cc1cccs1 (stereo not given) | inactive |
| CN(C)c1ccc2nnc(-c3cc(C(=O)Nc4cccc(Cl)c4)ccn3)n2n1 | inconclusive: 35.5 µM [cytotoxic, partial curve, poor fit] |
| C=C1C(=O)O[C@H]2[C@H]1[C@@H](OC(=O)/C(C)=C\C)C[C@]1(C)O[C@@H]1[C@H]1O[C@H]1C(=C)[C@H]2O | inconclusive: 18.5 µM [cytotoxic, single point] |
| Cc1nc2c(c(-c3ccc(O)cc3)n1)CN(C(=O)c1ccc(F)cc1)CC2 | inactive |
| COc1ccc(CN2C[C@@H]3C[C@@H](C(N)=O)N(C(=O)CC4CCCC4)c4cccc(c43)C2=O)cc1 | inactive |
| CCCCN1C(=O)c2[nH]nc(-c3ccccc3O)c2C1c1cc(Br)c(O)c(OC)c1 (stereo not given) | inconclusive: 39.8 µM [cytotoxic, single point] |
| Cc1cc(C)n(CCC(=O)NC2CCCN(c3cc(-c4ccc(Cl)cc4)[nH]n3)C2)n1 (stereo not given) | inconclusive: 2.51 µM [cytotoxic, full curve, poor fit] |

From PubChem BioAssay AID1671193 (National Center for Advancing Translational Sciences (NCATS), 2021)
